The subject of the assay is cellular ATP levels. To be noted: for ATP (composite Z-score): normalized score vs mock-treated (DMSO) wells.
Where [1] appears, read: composite Z-score vs DMSO, Conc 20 μM.
[2] abbreviates: composite Z-score vs mock-treated (DMSO) wells, Conc 20 μM.
Where [3] appears, read: composite Z-score vs mock-treated (DMSO) wells, concentration of each compound in μM.
Where [4] appears, read: 20 μM, composite Z-score vs DMSO.
Setting [5] is: normalized composite Z-score vs mock-treated (DMSO) wells, Conc 20 μM.
Where [6] appears, read: composite Z-score vs DMSO wells, Conc 20 μM.
The mark [7] stands for this setting: Table 4, C2C12 myotubes, 48 h, composite Z-score.

Where two headings read alike, the source gives them in different places.

As to `C[C@H]1CC[C@]2(NC1)O[C@H]1C[C@H]3[C@@H]4CC[C@H]5C[C@@H](O[C@@H]6O[C@H](CO)[C@H](O[C@@H]7O[C@H](CO)[C@@H](O)[C@H](O[C@@H]8OC[C@@H](O)[C@H](O)[C@H]8O)[C@H]7O[C@@H]7O[C@H](CO)[C@@H](O)[C@H](O)[C@H]7O)[C@H](O)[C@H]6O)CC[C@]5(C)[C@H]4CC[C@]3(C)[C@H]1[C@@H]2C` [tomatine], the ATP under setting [1] is −5.117.

As to `CC(C)c1c(O)ccc2c1CCC1[C@@](C)(C=O)CCC[C@]21C` (some centres unmarked) [totaralolal], the ATP under setting [2] stood at 0.829.

As to `COC(=O)[C@@]1(C)CCC[C@]2(C)c3ccc(O)c(C(C)C)c3CCC12` (some centres unmarked) [totarol-19-carboxylic acid, methyl ester], the ATP under setting [2] is on record as 2.434.

`CCOC(=O)[C@H](CCc1ccccc1)N[C@@H](C)C(=O)N1[C@H](C(=O)O)C[C@H]2CCCC[C@@H]21` [trandoapril] came in with an ATP under setting [3] of 0.603.

Under setting [4], `CC(=O)OCC(COC(C)=O)OC(C)=O` [triacetin] registered an ATP of −0.008.

Under setting [5], `CC(=O)Oc1ccc(/C=C/c2cc(OC(C)=O)cc(OC(C)=O)c2)cc1` [triacetylresveratrol] had an ATP of −1.727.

Regarding `CC(CN(C)C)CN1c2ccccc2Sc2ccccc21` (centres unmarked) [trimeprazine], the ATP (composite Z-score vs DMSO, Conc 8.92 μM) was −0.459 and the ATP under setting [1] is on record as −3.762.

Turning to `CC(C)c1ccc2c(c1O)CC[C@H]1C3=C(CC[C@]21C)C(=O)OC3` [triptophenolide], the “ATP (composite Z-score)” value (Conc 20 μM) is reported as −2.142.

`CO[C@H]1C[C@H](O[C@H]2[C@H](C)[C@@H](O[C@@H]3O[C@H](C)C[C@H](N(C)C)[C@H]3OC(C)=O)[C@@H](C)C[C@@]3(CO3)C(=O)[C@H](C)[C@@H](OC(C)=O)[C@@H](C)[C@@H](C)OC(=O)[C@@H]2C)O[C@@H](C)[C@@H]1OC(C)=O` [troleandomycin] returned an ATP under setting [1] of 0.194.

Consider `C=C(C)C1Cc2c(ccc(C(=O)O)c2O)O1` (centres unmarked) [tubaic acid], for which the “ATP (composite Z-score)” value (Conc 20 μM) came to 0.416.

On to `CC(C)(C)NCC(O)c1ccccc1Cl` (centres unmarked) [tulobuterol], for which, under setting [4], the ATP is −0.653.

As to `CCC(C)C(=O)O[C@@H]1C[C@@]2(C)[C@H](c3ccoc3)OC(=O)CC23OC2(C)O[C@]14[C@]1(C)[C@@H](CC(=O)OC)C5(C)CC1(O)[C@](O)(C5OC(=O)C1(C)OC1C)[C@@H](OC(C)=O)[C@]34O2` (some centres unmarked) [utilin], the ATP under setting [2] worked out at 1.189.

With `COC(=O)/C(=C1/OC(=O)C(c2ccccc2)=C1O)c1ccccc1` [vulpinic acid], the ATP under setting [4] amounted to 0.685.

`CC1(C)C=Cc2cc3ccc(=O)oc3cc2O1` [xanthyletin]: the ATP under setting [2] is on record as 0.349.

`CCCOc1ccccc1-c1nc2nn[nH]c2c(=O)[nH]1` [zaprinast]: under setting [6], the ATP is 1.768.

Take `CC(C)(O)[C@H]1CC[C@]2(C)[C@H]3CC[C@@H]4[C@@]5(C)CCCC(C)(C)[C@@H]5[C@@H](O)C[C@@]4(C)[C@]3(C)CC[C@@H]12` [zeorin]: the ATP under setting [5] is on record as −0.326.

The molecule (S)-(−)-atenolol gave an ATP of 0.476.

avermectin B1 displayed an ATP under setting [1] of −0.108.

Take beta-escin: the “ATP (composite Z-score)” value (Conc 20 μM) is given as −5.858.

In the case of beta-sitosterol, the ATP under setting [1] is given as −0.419.

Regarding caryophyllene, the “ATP (composite Z-score)” value (Conc 20 μM) came out at 1.810.

Turning to dihydromundulone [reference compound], the ATP is −0.792 under setting [7] and −0.792 under setting [5].

As to dimenhydrinate, the ATP under setting [1] is reported as −0.597.

estrone hemisuccinate registered an ATP under setting [6] of 0.242.

In the case of gentamicin sulfate, under setting [1], the ATP is on record as −0.234.

For ginkgolic acid, under setting [1], the ATP amounted to 0.489.

Regarding “isoduartin methyl ether [reference compound]”, where the note is “Conc 20 μM”, the “ATP (composite Z-score)” value was found to be 0.032. The ATP under setting [7] is reported as 0.032.

khayanthone: the ATP under setting [2] is reported as 0.345.

The molecule “methyl 7-deshydroxypyrogallin-4-carboxylate” registered an ATP under setting [5] of 1.034.

With methyl benzethonium chloride, the ATP is given as −3.432.

In turn, methylorsellinic acid, ethyl ester yielded an ATP under setting [5] of 0.341.

Consider muurolladie-3-one, for which the ATP under setting [5] was −0.436.

In the case of nonoxynol-9, under setting [3], the ATP is given as −0.737.

Regarding phytol, the ATP under setting [5] was −0.426.

Take polymyxin b sulfate: the ATP under setting [4] was 1.157.

In the case of pteryxin, the “ATP (composite Z-score)” value (Conc 20 μM) was −0.082.

On to theaflavin monogallate, for which the ATP under setting [5] turned out to be 0.164.

totarol acetate yielded an ATP under setting [1] of 0.031.

Values taken from patent US20090143279A1 (priority 2007, published 2009).
